Reference: PubChem BioAssay (Tox21)
For some assays here: What follows is the remainder of the data, with few or none of the hits. Inconclusive results are not listed. The list shows a part of the results, in another mix than the full data. Calls of active or inactive are those of the source. The call rests on the fitted dose curve; in most records, active means well fitted curve in the direction sought with a large enough effect in the repeat runs; inconclusive means weak or mixed curves; inactive means no such curve, though single readings can be large; an effect the other way counts as inactive or inconclusive.

Columns and labels:
[1] = qHTS assay for identifying genotoxic compounds that show differential cytotoxicity against isogenic chicken DT40 cell lines with known DNA damage response pathways - wild type cell line (AID 743012); further: nearly all actives have a fitted effect of over 60% in size; further: potency means the concentration at half of the fitted maximal effect
In short: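 CellTiter-Glo luminescence readout of viability in wild type DT40 cells after 40 h compound exposure at 37 C/5% CO2; 300 cells/well; reagent incubated 30 min at room temperature before reading.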

[2] = biological target: Nuclear receptor subfamily 1 group I member 2 (Homo sapiens) (UniProt O75469); test: CYP3A4 induction through human pregnane X receptor (PXR) by small molecules, qHTS assay (AID 1346984); conditions: DPX-2 HepG2 PXR, CYP3A4-luciferin luminescence, 24 h; at 46.1 µM (top of the series); further: on the % scale 0 is the no-effect control and ±100 the full control effect; nearly all actives have a fitted effect of over 40% in size
In short: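 HepG2-derived DPX-2 line carrying PXR plus a CYP3A4-promoter luciferase reporter; cells plated 5 hr, compound-exposed 24 hr at 37C. CYP3A4 activity probed with 3uM (final) Luciferin-IPA for 3hr, then luciferase read after One-Glo.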

[3] = biological target: Cytochrome P450 2C19 (Homo sapiens) (UniProt P33261); test: Cytochrome P450 Family 2 Subfamily C Member 19 (CYP2C19) small molecule antagonists: luciferase reporter qHTS assay (AID 1671197); further: nearly all actives have a fitted effect of over 65% in size; further: potency means the concentration at half of the fitted maximal effect; on activity change, negative = inhibition: on the % scale 0 is the no-effect control and ±100 the full control effect
In short: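 Light output is proportional to CYP2C19 activity: proluciferin substrate is converted to luciferin, then detected by a luciferin detection reagent that also stops the 1 h, 37C NADPH-driven reaction. Ketoconazole serves as positive control.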

[4] = biological target: Cytochrome P450 2C9 (Homo sapiens) (UniProt P11712); test: Cytochrome P450 Family 2 Subfamily C Member 9 (CYP2C9) small molecule antagonists: luciferase reporter qHTS assay (AID 1671198); conditions: P450-Glo CYP2C9 enzyme assay, luciferin luminescence; further: potency means the concentration at half of the fitted maximal effect; nearly all actives have a fitted effect of over 50% in size
In short: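 P450-Glo proluciferin substrate with CYP2C9 enzyme; 10 min RT preincubation, then NADPH regeneration 1 h at 37C; luciferin detection reagent 20 min RT, luminescence in relative luminescence units.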

[5] = biological target: Cytochrome P450 1A2 (Homo sapiens) (UniProt P05177); test: Cytochrome P450 Family 1 Subfamily A Member 2 (CYP1A2) small molecule antagonists: luciferase reporter qHTS assay (AID 1671199); further: nearly all actives have a fitted effect of over 50% in size; further: potency means the concentration at half of the fitted maximal effect; on activity change, negative = inhibition: on the % scale 0 is the no-effect control and ±100 the full control effect
In short: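 Luminescence readout (relative luminescence units) after luciferin detection reagent, 20 min RT. Preceded by 1 h room-temperature CYP1A2 reaction with NADPH regeneration solution following 10 min compound preincubation with enzyme and proluciferin substrate. Furafylline positive control.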

[6] = biological target: Voltage-gated inwardly rectifying potassium channel KCNH2 (Homo sapiens) (UniProt Q12809); test: Human Ether-a-go-go-Related Gene (hERG) channel small molecule antagonists: fluorescence cell-based qHTS assay (AID 1671200); conditions: hERG-U2OS cells, FluxOR thallium flux fluorescence; at 76.8 µM (top of the series) unless noted;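 further: hERG-expressing U2OS cells given a thallium stimulus after FluxOR II dye loading; on the % scale 0 is the no-effect control and ±100 the full control effect; nearly all actives have a fitted effect of over 50% in size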
In short: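 First, 1000 cells per well are seeded and cultured overnight at 37 C. Next, FluxOR II dye is loaded for 1 h at room temperature, protected from light. After 10 more minutes, stimulus is added and fluorescence is read.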

[7] = qHTS assay for identifying genotoxic compounds that show differential cytotoxicity against isogenic chicken DT40 cell lines with known DNA damage response pathways - Rad54/Ku70 mutant cell line (AID 743015); further: nearly all actives have a fitted effect of over 60% in size; further: potency means the concentration at half of the fitted maximal effect
[8] = qHTS assay for identifying genotoxic compounds that show differential cytotoxicity against isogenic chicken DT40 cell lines with known DNA damage response pathways - Rev3 mutant cell line (AID 743014); conditions: chicken DT40 Rev3-/- viability, CellTiter-Glo, 40 h; further: potency means the concentration at half of the fitted maximal effect; nearly all actives have a fitted effect of over 55% in size
[9] = biological target: Cytochrome P450 3A4 (Homo sapiens) (UniProt P08684); test: Cytochrome P450 Family 3 Subfamily A Member 4 (CYP3A4) small molecule antagonists: luciferase reporter qHTS assay (AID 1671201); conditions: P450-Glo CYP3A4 enzyme, luciferin luminescence, 1 h; further: potency means the concentration at half of the fitted maximal effect; nearly all actives have a fitted effect of over 50% in size
In short: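 Enzyme and proluciferin substrate are mixed with test chemicals for 10 min, then NADPH regeneration system drives turnover for 1 h at room temperature. A detection reagent halts the reaction; luminescence after 20 min gives relative activity.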

Chain of UniProt P05177 (P05177 whole entry, looked up): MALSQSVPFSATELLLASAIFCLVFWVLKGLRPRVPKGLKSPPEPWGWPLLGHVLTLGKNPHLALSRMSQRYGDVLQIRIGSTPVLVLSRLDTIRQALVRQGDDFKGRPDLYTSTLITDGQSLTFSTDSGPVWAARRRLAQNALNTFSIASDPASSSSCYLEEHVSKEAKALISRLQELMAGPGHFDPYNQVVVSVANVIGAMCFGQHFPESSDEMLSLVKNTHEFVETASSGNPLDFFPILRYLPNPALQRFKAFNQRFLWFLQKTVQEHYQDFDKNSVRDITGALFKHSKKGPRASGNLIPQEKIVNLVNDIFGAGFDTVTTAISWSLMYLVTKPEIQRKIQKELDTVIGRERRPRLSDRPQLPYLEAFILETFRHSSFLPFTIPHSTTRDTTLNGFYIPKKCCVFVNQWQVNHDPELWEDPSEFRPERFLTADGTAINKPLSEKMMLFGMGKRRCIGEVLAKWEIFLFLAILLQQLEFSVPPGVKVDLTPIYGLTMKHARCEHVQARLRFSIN
Chain of UniProt P33261 (P33261 whole entry, looked up): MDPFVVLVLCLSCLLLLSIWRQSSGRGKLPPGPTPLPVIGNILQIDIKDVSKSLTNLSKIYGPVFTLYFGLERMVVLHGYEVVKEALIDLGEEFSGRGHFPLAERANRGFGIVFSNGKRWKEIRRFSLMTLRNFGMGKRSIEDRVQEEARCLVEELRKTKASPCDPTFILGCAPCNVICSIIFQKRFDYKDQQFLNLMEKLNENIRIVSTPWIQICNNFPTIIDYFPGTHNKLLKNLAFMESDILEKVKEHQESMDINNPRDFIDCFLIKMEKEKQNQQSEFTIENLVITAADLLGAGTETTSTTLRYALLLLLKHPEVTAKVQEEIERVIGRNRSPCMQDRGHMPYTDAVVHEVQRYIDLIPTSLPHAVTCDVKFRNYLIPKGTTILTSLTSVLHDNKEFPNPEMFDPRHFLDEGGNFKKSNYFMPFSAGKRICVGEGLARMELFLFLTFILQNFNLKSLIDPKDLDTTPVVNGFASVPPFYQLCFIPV
Chain of UniProt P11712 (P11712 whole entry, looked up): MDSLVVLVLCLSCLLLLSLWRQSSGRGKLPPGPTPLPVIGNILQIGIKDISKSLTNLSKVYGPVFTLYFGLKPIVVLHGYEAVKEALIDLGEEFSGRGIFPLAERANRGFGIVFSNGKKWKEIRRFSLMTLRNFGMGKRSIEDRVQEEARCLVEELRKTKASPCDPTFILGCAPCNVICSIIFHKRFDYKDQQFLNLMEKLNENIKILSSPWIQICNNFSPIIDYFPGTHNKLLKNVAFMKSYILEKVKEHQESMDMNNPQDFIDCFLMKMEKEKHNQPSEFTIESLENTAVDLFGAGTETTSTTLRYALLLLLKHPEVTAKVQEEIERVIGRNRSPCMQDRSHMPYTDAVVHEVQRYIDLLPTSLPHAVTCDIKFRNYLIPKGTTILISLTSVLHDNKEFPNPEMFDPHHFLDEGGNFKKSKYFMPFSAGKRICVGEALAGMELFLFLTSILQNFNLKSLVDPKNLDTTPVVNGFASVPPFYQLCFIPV
Chain of UniProt Q12809 (Q12809 whole entry, looked up): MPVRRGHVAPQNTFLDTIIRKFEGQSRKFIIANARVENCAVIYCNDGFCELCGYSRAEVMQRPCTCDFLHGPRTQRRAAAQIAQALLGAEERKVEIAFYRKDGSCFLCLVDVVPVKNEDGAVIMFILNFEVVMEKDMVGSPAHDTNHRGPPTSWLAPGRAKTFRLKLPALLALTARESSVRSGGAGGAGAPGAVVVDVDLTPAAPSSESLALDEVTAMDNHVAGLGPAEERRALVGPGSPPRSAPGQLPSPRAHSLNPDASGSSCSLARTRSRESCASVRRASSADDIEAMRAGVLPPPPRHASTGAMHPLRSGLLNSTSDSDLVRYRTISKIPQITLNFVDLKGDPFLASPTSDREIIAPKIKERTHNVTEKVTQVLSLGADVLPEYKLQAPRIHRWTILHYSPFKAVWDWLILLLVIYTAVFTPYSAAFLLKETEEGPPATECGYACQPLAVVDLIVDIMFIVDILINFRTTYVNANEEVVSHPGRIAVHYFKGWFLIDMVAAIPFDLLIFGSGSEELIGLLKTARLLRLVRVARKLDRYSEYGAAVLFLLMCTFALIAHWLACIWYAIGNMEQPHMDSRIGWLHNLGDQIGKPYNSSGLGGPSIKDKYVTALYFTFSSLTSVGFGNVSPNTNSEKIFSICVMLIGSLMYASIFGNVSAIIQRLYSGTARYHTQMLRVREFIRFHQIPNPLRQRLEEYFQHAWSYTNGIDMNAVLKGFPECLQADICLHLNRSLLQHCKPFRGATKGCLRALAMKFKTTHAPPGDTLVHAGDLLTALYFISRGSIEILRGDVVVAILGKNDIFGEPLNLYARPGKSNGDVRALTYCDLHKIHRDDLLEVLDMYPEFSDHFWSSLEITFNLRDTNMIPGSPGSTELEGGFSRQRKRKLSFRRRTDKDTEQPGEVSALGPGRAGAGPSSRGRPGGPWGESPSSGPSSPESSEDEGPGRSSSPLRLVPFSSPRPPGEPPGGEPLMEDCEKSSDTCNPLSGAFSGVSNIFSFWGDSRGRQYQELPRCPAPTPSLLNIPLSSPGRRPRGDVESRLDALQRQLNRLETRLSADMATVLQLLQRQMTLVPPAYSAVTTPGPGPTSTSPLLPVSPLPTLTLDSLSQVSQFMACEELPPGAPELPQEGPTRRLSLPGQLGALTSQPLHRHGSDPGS
Chain of UniProt P08684 (P08684 whole entry, looked up): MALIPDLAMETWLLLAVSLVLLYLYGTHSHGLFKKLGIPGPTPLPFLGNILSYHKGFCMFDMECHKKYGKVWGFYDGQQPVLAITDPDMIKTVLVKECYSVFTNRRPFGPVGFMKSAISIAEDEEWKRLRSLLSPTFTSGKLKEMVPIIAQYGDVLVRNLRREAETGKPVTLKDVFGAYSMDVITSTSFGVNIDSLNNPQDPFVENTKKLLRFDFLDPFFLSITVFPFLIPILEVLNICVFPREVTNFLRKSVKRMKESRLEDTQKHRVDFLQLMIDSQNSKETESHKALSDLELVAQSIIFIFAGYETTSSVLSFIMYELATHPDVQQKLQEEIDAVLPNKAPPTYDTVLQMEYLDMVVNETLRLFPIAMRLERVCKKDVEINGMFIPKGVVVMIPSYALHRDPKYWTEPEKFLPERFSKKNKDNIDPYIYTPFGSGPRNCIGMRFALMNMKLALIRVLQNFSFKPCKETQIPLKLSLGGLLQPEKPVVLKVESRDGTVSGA

CC(=O)[C@H]1CC[C@H]2[C@@H]3CC[C@H]4C[C@H](O)CC[C@]4(C)[C@H]3C(=O)C[C@]12C
active: Potency [1] 23.7 µM | Potency [4] 9.77 µM
inactive: activation [2] -4.68% | Potency [3] | Potency [5] | activity change, negative = inhibition [6] 10.7% [at 35.3 µM]

CN1c2ccccc2C(NCCCCCCC(=O)O)c2ccc(Cl)cc2S1(=O)=O (configuration not stated)
inactive: Potency [1] | Potency [7] | activation [2] 1.58%

Nc1ccccc1C(=O)OC/C=C/c1ccccc1
inactive: activity change, negative = inhibition [6] -21.4%
active: Potency [1] 48.7 µM | Potency [8] 27.4 µM | Potency [7] 43.4 µM | Potency [3] 3.57 µM | Potency [4] 20.1 µM | Potency [5] 10.1 µM | Potency [9] 63.4 µM
